According to patent US5849695A, “Parathyroid hormone analogues useful for treatment of osteoporosis and disorders of calcium meatabolism in mammals” (The Regents of the University of California, priority 1993, dated 1998):
Not every detail of the peptide structures is certain; ends, links or a residue may be inferred.

Experiments:
[1] = molecular target: T1, PTH receptor (Canis lupus familiaris, UniProt Q9TU31); details: background (Ref. 1); cited from earlier work
T1 construct: canine renal plasma membranes; from tissue; host or cells: canine kidney (renal plasma membranes)
T1 sequence (Q9TU31 29-595): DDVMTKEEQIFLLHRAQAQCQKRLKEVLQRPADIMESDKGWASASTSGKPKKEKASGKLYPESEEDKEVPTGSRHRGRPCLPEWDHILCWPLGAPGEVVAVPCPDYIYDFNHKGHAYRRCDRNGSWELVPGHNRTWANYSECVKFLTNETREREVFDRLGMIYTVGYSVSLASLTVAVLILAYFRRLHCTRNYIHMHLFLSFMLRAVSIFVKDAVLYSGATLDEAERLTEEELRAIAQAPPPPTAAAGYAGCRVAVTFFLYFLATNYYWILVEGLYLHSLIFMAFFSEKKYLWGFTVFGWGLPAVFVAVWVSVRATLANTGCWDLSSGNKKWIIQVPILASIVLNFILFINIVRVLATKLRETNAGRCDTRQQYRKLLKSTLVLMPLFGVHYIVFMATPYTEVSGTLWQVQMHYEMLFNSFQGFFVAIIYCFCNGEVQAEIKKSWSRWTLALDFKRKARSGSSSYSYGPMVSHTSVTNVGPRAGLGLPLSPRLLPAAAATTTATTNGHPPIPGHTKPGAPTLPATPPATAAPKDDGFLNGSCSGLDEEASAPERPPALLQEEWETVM

[2] = molecular target: T1, PTH receptor; details: background; cited from earlier work
[3] = Circular dichroism: alpha-helical content; type: physicochemical
Experimental: Far ultraviolet circular dichroism (CD) spectra were obtained in phosphate buffer (ph 7.0) at 25±1° C. in a 1.0 mm cell on an Instruments SA Jobin Yvon circular dichrograph calibrated with (+) 10-camphorsulfonic acid and epiandosterone. Peptides were analyzed at concentrations ranging from 0.1-0.3 mg/ml. The mean molar ellipticity per residue at 222 nm ([⊖]222 nm-, deg cm^2 /dmol) was used to derive estimates of alpha-helicity according to the method of Taylor and Kaiser (ref. 29).

[4] = tested on: PTH receptor; details: Table 5A; intact cells, hPTH(1-34) = 100
[5] = molecular target: T2, PTH receptor (Homo sapiens, UniProt Q03431); type: cell-based; set-up: In intact rat (UMR-106) and human (SaOS-2) bone cell lines; endogenous in cells; host or cells: SaOS-2 human bone (osteosarcoma) cells; details: intact human (SaOS-2) bone cell line
T2 sequence (Q03431 27-593): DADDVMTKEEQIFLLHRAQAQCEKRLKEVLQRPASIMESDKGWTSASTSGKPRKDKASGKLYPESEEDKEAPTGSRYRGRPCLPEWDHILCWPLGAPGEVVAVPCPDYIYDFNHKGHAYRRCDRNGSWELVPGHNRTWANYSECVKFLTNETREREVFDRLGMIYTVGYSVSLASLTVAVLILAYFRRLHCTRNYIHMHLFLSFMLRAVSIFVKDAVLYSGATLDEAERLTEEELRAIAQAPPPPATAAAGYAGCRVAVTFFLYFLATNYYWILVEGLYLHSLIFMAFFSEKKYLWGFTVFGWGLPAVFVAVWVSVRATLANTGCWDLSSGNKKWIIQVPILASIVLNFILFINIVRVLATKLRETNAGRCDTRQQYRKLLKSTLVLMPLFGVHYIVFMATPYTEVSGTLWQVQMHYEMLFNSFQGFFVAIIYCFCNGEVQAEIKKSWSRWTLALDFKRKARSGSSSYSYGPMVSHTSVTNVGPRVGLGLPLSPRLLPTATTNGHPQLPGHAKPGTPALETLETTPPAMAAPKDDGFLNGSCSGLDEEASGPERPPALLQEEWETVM
Source text: The renal membrane assay values listed reflect the effect of the polypeptide analogue with kidney tissue receptors. The UMR-106-H5 assay values reflect the effect of the peptide analogue with rat bone tissue receptors. The Sa05-2 assay values reflect the effect of the peptides for human bone tissue receptors.

[6] = molecular target: T3, PTH receptor (Rattus norvegicus, UniProt P25961); type: cell-based; details: intact rat (UMR-106) bone cell line
T3 construct: endogenous in cells; host or cells: UMR 106-H5 rat osteosarcoma cells
T3 sequence (P25961 27-591): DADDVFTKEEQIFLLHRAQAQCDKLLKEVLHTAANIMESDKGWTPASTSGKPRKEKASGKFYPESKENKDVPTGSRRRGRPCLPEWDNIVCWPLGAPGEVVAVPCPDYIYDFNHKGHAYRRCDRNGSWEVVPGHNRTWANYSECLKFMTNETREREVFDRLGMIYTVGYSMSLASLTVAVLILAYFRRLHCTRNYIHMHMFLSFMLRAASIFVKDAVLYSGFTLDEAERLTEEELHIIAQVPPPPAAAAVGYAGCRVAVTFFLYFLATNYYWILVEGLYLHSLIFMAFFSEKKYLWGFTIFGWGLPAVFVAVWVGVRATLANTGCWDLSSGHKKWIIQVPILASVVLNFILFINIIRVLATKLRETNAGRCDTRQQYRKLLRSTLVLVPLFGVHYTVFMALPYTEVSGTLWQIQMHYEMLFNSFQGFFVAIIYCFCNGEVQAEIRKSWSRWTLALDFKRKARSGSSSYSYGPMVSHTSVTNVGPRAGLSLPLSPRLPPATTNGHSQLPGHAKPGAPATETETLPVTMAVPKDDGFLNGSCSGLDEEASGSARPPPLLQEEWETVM
Experimental: Assays were conducted using […] cells. These assays were performed as described in Cohen et al. (1991), J. Biological Chem., 266(3), 1997 and in the Experimental section, e.g. Example 11. Receptor binding assays were carried out in canine renal plasma membranes and in UMR 106-H5 rat osteosarcoma cells as previously described in detail (Ref. 14,32), using ^125 I-labeled PTH(1-34)amide as the radioligand. Binding potency (IC50) was quantified as the concentration of unlabeled peptide required for half-maximal displacement of the radioligand. […] Adenylate cyclase activity was assessed in canine renal membranes by the conversion of [α-32p ] ATP to [^32 P] cyclic AMP, essentially as described, except for the addition of 100 micromolar GTP (Ref. 33,34). Adenylate cyclase activity in UMR 106-H5 cells was assessed essentially as described (Ref. 35). In brief, cells were incubated with [3H]adenine 1 micro Ci/ml of serum-free MEM for two hours at 37° C. to label the endogenous ATP pool. Cells were then exposed to 0.4 mM IBMX for 10 min, followed by the appropriate peptide for an additional 10 min at ambient temperature. The cells are then scraped in 20% TCA, and [3H]cyclic AMP is isolated by the column procedure of Salomon et al. (Ref. 36). Potency in the adenylate cyclase assays (Ka) is the concentration of peptide producing half-maximal enzyme activation.

Compound	agonist activity, adenylate cyclase [1]	affinity for renal PTH receptors [2]	alpha-helical residues ([3]; 30% TFE, second experiment) [residues]	alpha-helical residues ([3]; absence of TFE)	KIDNEY CELLS (CK) Activity (AC) [4] [%]	agonism with respect to activation of adenylate cyclase [5]	agonism with respect to activation of adenylate cyclase [6]
CSCC[C@H](NC(=O)[C@H](CO)NC(=O)[C@H](CO)NC(=O)[C@H](CC(C)C)NC(=O)[C@H](Cc1c[nH]cn1)NC(=O)[C@H](CCCCN)NC(=O)CNC(=O)[C@H](CC(C)C)NC(=O)[C@H](CC(N)=O)NC(=O)[C@H](Cc1c[nH]cn1)NC(=O)[C@H](CCSC)NC(=O)[C@@H](N)Cc1ccccc1)C(=O)N[C@@H](CCC(=O)O)C(=O)N[C@@H](CCCNC(=N)N)C(=O)N[C@H](C(=O)N[C@@H](CCC(=O)O)C(=O)N[C@@H](Cc1c[nH]c2ccccc12)C(=O)N[C@@H](CC(C)C)C(=O)N[C@@H](CCCNC(=N)N)C(=O)N[C@@H](CCCCN)C(=O)N[C@@H](CCCCN)C(=O)N[C@@H](CC(C)C)C(=O)N[C@@H](CCC(N)=O)C(=O)N[C@@H](CC(=O)O)C(=O)N[C@H](C(=O)N[C@@H](Cc1c[nH]cn1)C(=O)N[C@@H](CC(N)=O)C(=O)N[C@@H](Cc1ccc(O)cc1)C(N)=O)C(C)C)C(C)C [[Tyr^34]bPTH(7-34)amide]	does not have any agonist activity	moderate affinity	18	7-10 residues	–	–	–
CC[C@H](C)[C@H](NC(=O)[C@H](CCC(=O)O)NC(=O)[C@H](CC(C)C)NC(=O)[C@@H](NC(=O)[C@@H](N)CO)C(C)C)C(=O)N[C@@H](CCC(N)=O)C(=O)N[C@@H](CC(C)C)C(=O)N[C@@H](CCSC)C(=O)N[C@@H](Cc1c[nH]cn1)C(=O)N[C@@H](CC(N)=O)C(=O)N[C@@H](CC(C)C)C(=O)NCC(=O)N[C@@H](CCCCN)C(=O)N[C@@H](Cc1c[nH]cn1)C(=O)N[C@@H](CC(C)C)C(=O)N[C@@H](CC(N)=O)C(=O)N[C@@H](CO)C(=O)N[C@@H](CCSC)C(=O)N[C@@H](CCC(=O)O)C(=O)N[C@@H](CCCNC(=N)N)C(=O)N[C@H](C(=O)N[C@@H](CCC(=O)O)C(=O)N[C@@H](Cc1c[nH]c2ccccc12)C(=O)N[C@@H](CC(C)C)C(=O)N[C@@H](CCCNC(=N)N)C(=O)N[C@@H](CCCCN)C(=O)N[C@@H](CCCCN)C(=O)N[C@@H](CC(C)C)C(=O)N[C@@H](CCC(N)=O)C(=O)N[C@@H](CC(=O)O)C(=O)N[C@H](C(=O)N[C@@H](Cc1c[nH]cn1)C(=O)N[C@@H](CC(N)=O)C(=O)N[C@@H](Cc1ccccc1)C(=O)O)C(C)C)C(C)C [[leu^3]hPTH(1-34), [leu^3] HPTH(1-34)]	–	–	–	–	23	full agonists	full agonists
